Measurements from paper PMC6796834.
Where a chain is given by its changes, count along the chain named. In names and notes the source's numbering stands. No constants are given. Whether binding was seen depends on the method and setting. For some assays here: In cells and extracts the contact can be indirect. Some binding calls cover weakened binding; strength is not graded here. Values belong to the molecule of their own block, whether it stands above or below them.

Chains of the proteins cited; added tags and fusions are not shown. Lines headed by an entry give the natural chain unless they say otherwise; changes in a name come on top. Residues count along the entry.
UniProt P62068: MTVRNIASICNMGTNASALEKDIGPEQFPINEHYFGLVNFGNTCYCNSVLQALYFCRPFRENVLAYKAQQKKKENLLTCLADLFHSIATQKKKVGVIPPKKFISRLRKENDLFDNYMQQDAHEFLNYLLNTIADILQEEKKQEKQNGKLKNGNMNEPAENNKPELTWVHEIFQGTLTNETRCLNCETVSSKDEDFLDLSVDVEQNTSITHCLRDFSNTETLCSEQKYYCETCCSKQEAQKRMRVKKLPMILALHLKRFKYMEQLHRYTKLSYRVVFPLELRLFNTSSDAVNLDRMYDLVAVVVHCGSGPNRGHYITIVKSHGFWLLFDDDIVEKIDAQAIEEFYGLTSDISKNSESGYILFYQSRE
USP46 (in the crystallised USP46-WDR48-WDR20 complex): residues 24-366 of P62068
UniProt Q8TAF3: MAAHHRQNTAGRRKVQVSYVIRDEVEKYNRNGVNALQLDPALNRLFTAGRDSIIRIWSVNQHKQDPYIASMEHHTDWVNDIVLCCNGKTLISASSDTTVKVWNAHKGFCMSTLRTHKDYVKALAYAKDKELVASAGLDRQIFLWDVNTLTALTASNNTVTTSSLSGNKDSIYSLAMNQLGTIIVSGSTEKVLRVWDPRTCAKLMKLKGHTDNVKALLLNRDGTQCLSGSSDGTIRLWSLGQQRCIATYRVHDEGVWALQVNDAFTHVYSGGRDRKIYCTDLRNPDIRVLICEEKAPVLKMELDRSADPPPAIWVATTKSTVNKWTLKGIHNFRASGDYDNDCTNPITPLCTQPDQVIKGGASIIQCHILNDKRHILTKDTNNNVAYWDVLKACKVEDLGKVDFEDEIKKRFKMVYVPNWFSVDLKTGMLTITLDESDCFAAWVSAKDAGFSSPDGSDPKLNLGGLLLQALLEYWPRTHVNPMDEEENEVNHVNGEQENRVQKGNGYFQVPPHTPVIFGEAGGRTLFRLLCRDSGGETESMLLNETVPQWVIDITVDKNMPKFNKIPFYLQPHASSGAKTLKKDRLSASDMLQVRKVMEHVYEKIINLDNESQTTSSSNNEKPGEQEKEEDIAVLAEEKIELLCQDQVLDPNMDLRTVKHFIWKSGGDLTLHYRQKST

Legend:
[1] = target: USP46 (in the crystallised USP46-WDR48-WDR20 complex) (UniProt P62068); assay: crystal structure; USP46-WDR48-WDR20 complex prepared and crystallised, 3.1 Å resolution, one complex per asymmetric unit; both purified
D293R USP46 mutant = D293R USP46 mutant (UniProt P62068); assay: co-IP; Co-IP assay in 293T cells with WT and mutant USP46 (Fig. 1d) and WT and mutant WDR20 (Fig. 1e)
E186K USP46 mutant = E186K USP46 mutant (UniProt P62068); assay: as above
E279R USP46 mutant = E279R USP46 mutant (UniProt P62068); assay: as above
E279R/D293R USP46 mutant = E279R/D293R USP46 mutant (UniProt P62068); assay: as above
T347A/S348A USP46 mutant = T347A/S348A USP46 mutant (UniProt P62068); assay: as above
V275D/F283A USP46 mutant = V275D/F283A USP46 mutant (UniProt P62068); assay: as above
[2] = target: WT USP46 (Co-IP in 293T cells) (UniProt P62068); assay: as above
[3] = target: WDR48 (in the crystallised USP46-WDR48-WDR20 complex) (UniProt Q8TAF3); assay: crystal structure; USP46-WDR48-WDR20 complex prepared and crystallised, 3.1 Å resolution, one complex per asymmetric unit; both purified

B2: N41A WDR20 mutant (protein, UniProt Q8TBZ3 1-569)
chain: MATEGGGKEMNEIKTQFTTREGLYKLLPHSEYSRPNRVPFASQGSNPVRVSFVNLNDQSGNGDRLCFNVGRELYFYIYKGVRKAADLSKPIDKRIYKGTQPTCHDFNHLTATAESVSLLVGFSAGQVQLIDPIKKETSKLFNEERLIDKSRVTCVKWVPGSESLFLVAHSSGNMYLYNVEHTCGTTAPHYQLLKQGESFAVHTCKSKSTRNPLLKWTVGEGALNEFAFSPDGKFLACVSQDGFLRVFNFDSVELHGTMKSYFGGLLCVCWSPDGKYIVTGGEDDLVTVWSFVDCRVIARGHGHKSWVSVVAFDPYTTSVEEGDPMEFSGSDEDFQDLLHFGRDRANSTQSRLSKRNSTDSRPVSVTYRFGSVGQDTQLCLWDLTEDILFPHQPLSRARTHTNVMNATSPPAGSNGNSVTTPGNSVPPPLPRSNSLPHSAVSNAGSKSSVMDGAIASGVSKFATLSLHDRKERHHEKDHKRNHSMGHISSKSSDKLNLVTKTKTDPAKTLGTPLCPRMEDVPLLEPLICKKIAHERLTVLIFLEDCIVTACQEGFICTWGRPGKVVSFNP
binding [2]: binds

B3: E534A WDR20 mutant (protein, UniProt Q8TBZ3 1-569)
chain: B2 chain with A41N, E534A
binding [2]: binds

B4: WDR20 (in the crystallised USP46-WDR48-WDR20 complex) (protein, UniProt Q8TBZ3 1-569)
chain: B2 chain with A41N
binding [1]: binds
binding [3]: binds

B5: N41A/E534A WDR20 mutant (protein, UniProt Q8TBZ3 1-569)
chain: B2 chain with E534A
binding [2]: binds

Results, then the molecule that gave them:

binding [1]: binds
Molecule: WDR48 (in the crystallised USP46-WDR48-WDR20 complex) (from UniProt Q8TAF3 1-580)

binding (D293R USP46 mutant): binds
binding (E186K USP46 mutant): no binding
binding (E279R USP46 mutant): binds
binding (E279R/D293R USP46 mutant): binds
binding (T347A/S348A USP46 mutant): binds
binding (V275D/F283A USP46 mutant): binds
binding [2]: binds
Molecule: WDR48 (Co-IP in 293T cells) (from UniProt Q8TAF3 1-677)

binding (D293R USP46 mutant): binds
binding (E186K USP46 mutant): binds
binding (E279R USP46 mutant): binds
binding (E279R/D293R USP46 mutant): binds
binding (T347A/S348A USP46 mutant): binds
binding (V275D/F283A USP46 mutant): no binding
binding [2]: binds
B1: WT WDR20 (Co-IP in 293T cells) (protein, UniProt Q8TBZ3 1-569)
chain: B2 chain with A41N
